About 110 (3.4%) of roughly 3,200 compounds showed an effect of 50% or more. Some of the results follow.

The assay has as its system T1, V. cholerae SAD30.
T1 construct: SAD30
On the set-up: species or system S. aureus MSSA476 (TSB) or V. cholerae SAD30 (LB); 384-well bacterial growth screen at 25 uM, OD600 relative to DMSO control. Conditions: relative growth, OD600, LB; 25 µM; inhibitor.
On to `CC(Cl)C(=O)NCc1nnc2n1-c1ccccc1CC2` (stereo not shown) [6-N14, 2-chloro-N-({4H,5H-[1,2,4]triazolo[4,3-a]quinolin-1-yl}methyl)propanamide], for which the “% of control remaining” value turned out to be 91.6106%.
To `C=CC(=O)NCCc1nnc(C(C)C)s1` [2-L05, N-{2-[5-(propan-2-yl)-1,3,4-thiadiazol-2-yl]ethyl}prop-2-enamide] belongs 115.208%.
Consider `Cc1ccc(C(=O)c2c(NC(=O)CCl)sc3c2CCCC3)cc1` [6-A12, 2-chloro-N-[3-(4-methylbenzoyl)-4,5,6,7-tetrahydro-1-benzothiophen-2-yl]acetamide], for which the “% of control remaining” value was found to be 94.644%.
To `CN(CCc1ccccc1O)C(=O)CCl` [7-P21, 2-chloro-N-[2-(2-hydroxyphenyl)ethyl]-N-methylacetamide] belongs 106.658%; to `CN(C1CCCCC1)S(=O)(=O)c1ccccc1NC(=O)CCl` [5-N10, 2-chloro-N-{2-[cyclohexyl(methyl)sulfamoyl]phenyl}acetamide], 98.8547%.
As to `CC(c1ccc(C(F)(F)F)cc1F)N(C)C(=O)CCl` (stereo not shown) [7-P18, 2-chloro-N-{1-[2-fluoro-4-(trifluoromethyl)phenyl]ethyl}-N-methylacetamide], the “% of control remaining” value is reported as 89.212%.
As for `N#CC(=Cc1cccc(O)c1)C(=O)NCc1ccco1` [9-F21, 2-cyano-N-[(furan-2-yl)methyl]-3-(3-hydroxyphenyl)prop-2-enamide], the “% of control remaining” value is given as 89.395%.
`C=CC(=O)N1CCC(C(=O)NOC2CCCC2)(c2ccccc2)CC1` [3-K06, N-(cyclopentyloxy)-4-phenyl-1-(prop-2-enoyl)piperidine-4-carboxamide]: the “% of control remaining” value came to 95.7949%.
As for `CC(Cl)C(=O)N1CCCC(NS(=O)(=O)c2cccc(F)c2)C1` (stereo not shown) [7-C13, N-[1-(2-chloropropanoyl)piperidin-3-yl]-3-fluorobenzene-1-sulfonamide], the “% of control remaining” value was determined as 76.9205%.
Take `NC(=O)Nc1ccc(C(=O)CCl)cc1` [10-J07, [4-(2-chloroacetyl)phenyl]urea]: the “% of control remaining” value is reported as 65.4588%.
In the case of `C=CC(=O)N(C)Cc1cncn1C` [2-D09, N-methyl-N-[(1-methyl-1H-imidazol-5-yl)methyl]prop-2-enamide], the “% of control remaining” value stood at 93.747%.
Consider `C=CC(=O)NC1(c2nccc(C(F)(F)F)n2)CC1` [2-D07, N-{1-[4-(trifluoromethyl)pyrimidin-2-yl]cyclopropyl}prop-2-enamide], for which the “% of control remaining” value is 90.0415%.
In the case of `CC(C)Cn1c(N)c(C(=O)CCl)c(=O)n(C)c1=O` [10-M12, 6-amino-5-(2-chloroacetyl)-3-methyl-1-(2-methylpropyl)-1,2,3,4-tetrahydropyrimidine-2,4-dione], the “% of control remaining” value is on record as 98.4999%.
Consider `CC(NC(=O)C(C#N)=Cc1cccc(F)c1)c1ccccc1` (stereo not shown) [8-L18, 2-cyano-3-(3-fluorophenyl)-N-(1-phenylethyl)prop-2-enamide], for which the “% of control remaining” value amounted to 65.8736%.
Consider `O=C(CCl)NCc1nn(-c2ccccc2)c2c1CCC2` [7-B06, 2-chloro-N-({1-phenyl-1H,4H,5H,6H-cyclopenta[c]pyrazol-3-yl}methyl)acetamide], for which the “% of control remaining” value turned out to be 90.6658%.
In the case of `C=CC(=O)Nc1cc(NC(=O)C2CCC2)ccc1F` [2-E10, N-[4-fluoro-3-(prop-2-enamido)phenyl]cyclobutanecarboxamide], the “% of control remaining” value was 92.0486%.
`O=C(CCl)NCc1ccccc1Cn1cccn1` [5-P06, 2-chloro-N-({2-[(1H-pyrazol-1-yl)methyl]phenyl}methyl)acetamide]: the “% of control remaining” value was determined as 110.287%.
Regarding `C=CC(=O)NCc1cc2cc(C)ccc2o1` [3-L14, N-[(5-methyl-1-benzofuran-2-yl)methyl]prop-2-enamide], the “% of control remaining” value amounted to 86.6201%.
For `CC(Cl)C(=O)NCc1cc(C(F)F)nn1C` (stereo not shown) [6-H14, 2-chloro-N-{[3-(difluoromethyl)-1-methyl-1H-pyrazol-5-yl]methyl}propanamide], the “% of control remaining” value is listed as 84.7853%.
For `C=CC(=O)N1CCC(C(=O)NC2(CO)CCSCC2)CC1` [3-H07, N-[4-(hydroxymethyl)thian-4-yl]-1-(prop-2-enoyl)piperidine-4-carboxamide], the “% of control remaining” value turned out to be 92.2661%.
On to `O=C(CCl)N1N=C(c2cccs2)CC1c1ccc(F)cc1` (stereo not shown) [4-O20, 2-chloro-1-[5-(4-fluorophenyl)-3-(thiophen-2-yl)-4,5-dihydro-1H-pyrazol-1-yl]ethan-1-one], for which the “% of control remaining” value is recorded as 108.346%.
The same measure for `COc1ccccc1N=Nc1ccc(NC(=O)CCl)cc1C` [6-J06, 2-chloro-N-{4-[2-(2-methoxyphenyl)diazen-1-yl]-3-methylphenyl}acetamide]: 88.1221%.
For `C=CC(=O)N1CCOCC2(COCCN2C)C1` (stereo not shown) [3-J14, 1-{1-methyl-4,8-dioxa-1,11-diazaspiro[5.6]dodecan-11-yl}prop-2-en-1-one], the “% of control remaining” value was 90.5017%.
Consider `C=CC(=O)Nc1ncc(C2CCCC(C)C2)s1` (stereo not shown) [1-J16, N-[5-(3-methylcyclohexyl)-1,3-thiazol-2-yl]prop-2-enamide], for which the “% of control remaining” value is on record as 98.3808%.
Consider `Cc1ccc(N2C(=O)C=CC2=O)c(C)c1` [10-N07, 1-(2,4-dimethylphenyl)-2,5-dihydro-1H-pyrrole-2,5-dione], for which the “% of control remaining” value stood at 22.5989%.
Regarding `COCc1nc(C2CCCCCN2C(=O)CCl)no1` (stereo not shown) [5-B07, 2-chloro-1-{2-[5-(methoxymethyl)-1,2,4-oxadiazol-3-yl]azepan-1-yl}ethan-1-one], the “% of control remaining” value came out at 100.2%.
Turning to `O=C(CCl)Nc1ccc(C(F)(F)F)cc1[N+](=O)[O-]` [4-N08, 2-chloro-N-[2-nitro-4-(trifluoromethyl)phenyl]acetamide], the “% of control remaining” value turned out to be 102.48%.
The same measure for `O=C(CCl)NC1Cc2ccccc2N(C(=O)C(F)(F)F)C1` (stereo not shown) [7-L16, 2-chloro-N-[1-(2,2,2-trifluoroacetyl)-1,2,3,4-tetrahydroquinolin-3-yl]acetamide]: 86.1721%.
For the compound `Cc1cc(C(=O)CCl)c(C)c(C)c1C` [10-I06, 2-chloro-1-(2,3,4,5-tetramethylphenyl)ethan-1-one], the “% of control remaining” value was found to be 98.9675%.
With `Cc1ccc(CC(=O)CCl)cc1` [10-O13, 1-chloro-3-(4-methylphenyl)propan-2-one], the “% of control remaining” value was 100.058%.
The same measure for `C=CC(=O)Nc1cn(C)nc1OC(C)C` [1-F14, N-[1-methyl-3-(propan-2-yloxy)-1H-pyrazol-4-yl]prop-2-enamide]: 112.365%; for `Cc1cc(C(=O)CCl)c(C)n1-c1ccc(S(N)(=O)=O)cc1` [10-N14, 4-[3-(2-chloroacetyl)-2,5-dimethyl-1H-pyrrol-1-yl]benzene-1-sulfonamide]: 113.774%; for `N#CC(=Cc1ccc(Cl)c([N+](=O)[O-])c1)C(=O)NCc1ccco1` [9-E15, 3-(4-chloro-3-nitrophenyl)-2-cyano-N-[(furan-2-yl)methyl]prop-2-enamide]: 84.7723%.
For `CC(Cl)C(=O)Nc1ccc([N+](=O)[O-])cc1Cl` (stereo not shown) [4-J17, 2-chloro-N-(2-chloro-4-nitrophenyl)propanamide], the “% of control remaining” value worked out at 100.927%.
For the compound `C=CC(=O)NC(Cc1ccccc1)c1ncco1` (stereo not shown) [1-B07, N-[1-(1,3-oxazol-2-yl)-2-phenylethyl]prop-2-enamide], the “% of control remaining” value worked out at 90.284%.
For the compound `CC(Cl)C(=O)c1ccc(F)c(F)c1` (stereo not shown) [10-A17, 2-chloro-1-(3,4-difluorophenyl)propan-1-one], the “% of control remaining” value came to 103.955%.
On to `COc1ccc(NC(=O)N2CCSSCC2)cc1` [10-H21, N-(4-methoxyphenyl)-1,2,5-dithiazepane-5-carboxamide], for which the “% of control remaining” value is listed as 99.7467%.
Turning to `CC(Cl)C(=O)NC(C)C(c1ccccc1Cl)n1cccn1` (stereo not shown) [6-P09, 2-chloro-N-[1-(2-chlorophenyl)-1-(1H-pyrazol-1-yl)propan-2-yl]propanamide], the “% of control remaining” value came to 96.9191%.
With `N#Cc1ccc(C(=O)CCl)cc1` [10-F10, 4-(2-chloroacetyl)benzonitrile], the “% of control remaining” value is given as 0%.
Consider `CC(Cl)C(=O)NCCc1ccc(F)cc1` (stereo not shown) [6-F06, 2-chloro-N-[2-(4-fluorophenyl)ethyl]propanamide], for which the “% of control remaining” value came to 86.757%.
Turning to `C=CC(=O)NCCC(=O)N1CCSC(C)CC1` (stereo not shown) [2-K08, N-[3-(7-methyl-1,4-thiazepan-4-yl)-3-oxopropyl]prop-2-enamide], the “% of control remaining” value worked out at 87.5712%.
The same measure for `COc1ccc(C=C(C#N)C(=O)NCc2ccccc2)cc1O` [8-C09, N-benzyl-2-cyano-3-(3-hydroxy-4-methoxyphenyl)prop-2-enamide]: 76.4786%; for `C=C(Cl)CN(C(=O)CCl)C1CCc2ccccc21` (stereo not shown) [7-B18, 2-chloro-N-(2-chloroprop-2-en-1-yl)-N-(2,3-dihydro-1H-inden-1-yl)acetamide]: 83.0002%; for `COc1ccc(NC(=O)C(C#N)=Cc2cccc(O)c2)cc1OC` [8-F09, 2-cyano-N-(3,4-dimethoxyphenyl)-3-(3-hydroxyphenyl)prop-2-enamide]: 76.2067%.
As for `C=CC(=O)N1CCc2[nH]cnc2C1c1ccnn1C` (stereo not shown) [3-A07, 1-[4-(1-methyl-1H-pyrazol-5-yl)-1H,4H,5H,6H,7H-imidazo[4,5-c]pyridin-5-yl]prop-2-en-1-one], the “% of control remaining” value worked out at 120.32%.
As to `Cc1ccccc1NC(=O)C(C#N)=Cc1ccc2c(c1)OCCO2` [8-J03, 2-cyano-3-(2,3-dihydro-1,4-benzodioxin-6-yl)-N-(2-methylphenyl)prop-2-enamide], the “% of control remaining” value turned out to be 92.1142%.

The record behind these values is article PMC11995724, “Antibiotic target discovery by integrated phenotypic and activity-based profiling of electrophilic fragments” (Cell chemical biology, 2025).
